The other results are listed elsewhere or left out.
Tests used:
Assay in all cases: glycan array binding signal (z-score within array); higher = stronger binding
Conditions in all cases: glycan notation: IUPAC condensed, linker removed
[1] = biological target: Neu5Ac(a2-3)Gal(b1-4)[Fuc(a1-3)]GlcNAc
How it was run: (§1)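 The Consortium for Functional Glycomics database supplied 3228 glycan arrays, of which those lacking an available protein sequence were dropped. The binding signal, a within-array Z-score, was averaged across arrays of the same protein sequence and across linkers. Negative scores can be read as non-binding.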

[2] = biological target: Neu5Ac(a2-3)Gal(b1-4)[Fuc(a1-3)]GlcNAc(b1-3)Gal
How it was run: as §1

[3] = biological target: Neu5Ac(a2-3)Gal(b1-4)[Fuc(a1-3)]GlcNAc(b1-3)Gal(b1-4)GlcNAc
How it was run: as §1

[4] = biological target: Neu5Ac(a2-3)Gal(b1-4)[Fuc(a1-3)]GlcNAc(b1-3)Gal(b1-4)[Fuc(a1-3)]GlcNAc(b1-3)Gal(b1-4)[Fuc(a1-3)]GlcNAc
How it was run: as §1

[5] = biological target: Neu5Ac(a2-3)Gal(b1-4)[Fuc(a1-3)]GlcNAc(b1-6)[Gal(b1-3)]GalNAc
How it was run: as §1

[6] = biological target: Neu5Ac(a2-3)Gal(b1-4)[Fuc(a1-3)]GlcNAc6S
How it was run: as §1

[7] = biological target: Neu5Ac(a2-3)Gal6S(b1-4)GlcNAc
How it was run: as §1

[8] = biological target: Neu5Ac(a2-3)Gal6S(b1-4)[Fuc(a1-3)]GlcNAc
How it was run: as §1

[9] = biological target: Neu5Ac(a2-3)GalNAc
How it was run: as §1

[10] = biological target: Neu5Ac(a2-3)GalNAc(b1-4)GlcNAc
How it was run: as §1

[11] = biological target: Neu5Ac(a2-3)[GalNAc(b1-4)]Gal(b1-4)Glc
How it was run: as §1

[12] = biological target: Neu5Ac(a2-3)[GalNAc(b1-4)]Gal(b1-4)GlcNAc
How it was run: as §1

[13] = biological target: Neu5Ac(a2-3)[Neu5Ac(a2-6)]GalNAc
How it was run: as §1

[14] = biological target: Neu5Ac(a2-6)Gal
How it was run: as §1

[15] = biological target: Neu5Ac(a2-6)Gal(b1-4)Glc
How it was run: as §1

[16] = biological target: Neu5Ac(a2-6)Gal(b1-4)GlcNAc
How it was run: as §1

[17] = biological target: Neu5Ac(a2-6)Gal(b1-4)GlcNAc(b1-2)Man(a1-3)[Gal(b1-4)GlcNAc(b1-2)Man(a1-6)]Man(b1-4)GlcNAc(b1-4)GlcNAc
How it was run: as §1

[18] = biological target: Neu5Ac(a2-6)Gal(b1-4)GlcNAc(b1-2)Man(a1-3)[GlcNAc(b1-2)Man(a1-6)]Man(b1-4)GlcNAc(b1-4)GlcNAc
How it was run: as §1

[19] = biological target: Neu5Ac(a2-6)Gal(b1-4)GlcNAc(b1-2)Man(a1-3)[GlcNAc(b1-2)Man(b1-4)GlcNAc(b1-2)Man(a1-6)]Man(b1-4)GlcNAc(b1-4)GlcNAc
How it was run: as §1

[20] = biological target: Neu5Ac(a2-6)Gal(b1-4)GlcNAc(b1-2)Man(a1-3)[Neu5Ac(a2-6)Gal(b1-4)GlcNAc(b1-2)Man(a1-6)]Man(b1-4)GlcNAc(b1-4)GlcNAc
How it was run: as §1

[21] = biological target: Neu5Ac(a2-6)Gal(b1-4)GlcNAc(b1-2)Man(a1-6)[Gal(b1-4)GlcNAc(b1-2)Man(a1-3)]Man(b1-4)GlcNAc(b1-4)GlcNAc
How it was run: as §1

[22] = biological target: Neu5Ac(a2-6)Gal(b1-4)GlcNAc(b1-2)Man(a1-6)[GlcNAc(b1-2)Man(a1-3)]Man(b1-4)GlcNAc(b1-4)GlcNAc
How it was run: as §1

[23] = biological target: Neu5Ac(a2-6)Gal(b1-4)GlcNAc(b1-3)Gal(b1-4)GlcNAc
How it was run: as §1

[24] = biological target: Neu5Ac(a2-6)Gal(b1-4)GlcNAc(b1-3)Gal(b1-4)[Fuc(a1-3)]GlcNAc(b1-3)Gal(b1-4)[Fuc(a1-3)]GlcNAc
How it was run: as §1

[25] = biological target: Neu5Ac(a2-6)Gal(b1-4)GlcNAc6S
How it was run: as §1

[26] = biological target: Neu5Ac(a2-6)GalNAc
How it was run: as §1

[27] = biological target: Neu5Ac(a2-6)GalNAc(b1-4)GlcNAc
How it was run: as §1

[28] = biological target: Neu5Ac(a2-8)Neu5Ac
How it was run: as §1

[29] = biological target: Neu5Ac(a2-8)Neu5Ac(a2-3)Gal(b1-4)Glc
How it was run: as §1

[30] = biological target: Neu5Ac(a2-8)Neu5Ac(a2-3)[GalNAc(b1-4)]Gal(b1-4)Glc
How it was run: as §1

[31] = biological target: Neu5Ac(a2-8)Neu5Ac(a2-8)Neu5Ac
How it was run: as §1

[32] = biological target: Neu5Ac(a2-8)Neu5Ac(a2-8)Neu5Ac(a2-3)Gal(b1-4)Glc
How it was run: as §1

[33] = biological target: Neu5Ac(a2-8)Neu5Ac(a2-8)Neu5Ac(a2-3)[GalNAc(b1-4)]Gal(b1-4)Glc
How it was run: as §1

[34] = biological target: Neu5Ac(a2-8)Neu5Ac(a2-8)Neu5Ac(a2-8)Neu5Ac(a2-3)[GalNAc(b1-4)]Gal(b1-4)Glc
How it was run: as §1

[35] = biological target: Neu5Ac(b2-6)Gal(b1-4)GlcNAc
How it was run: as §1

[36] = biological target: Neu5Ac(b2-6)GalNAc
How it was run: as §1

[37] = biological target: Neu5Ac9Ac(a2-6)Gal(b1-4)GlcNAc
How it was run: as §1

[38] = biological target: Neu5Gc(a2-3)Gal(b1-3)GlcNAc
How it was run: as §1

[39] = biological target: Neu5Gc(a2-3)Gal(b1-3)[Fuc(a1-4)]GlcNAc
How it was run: as §1

[40] = biological target: Neu5Gc(a2-3)Gal(b1-4)Glc
How it was run: as §1

[41] = biological target: Neu5Gc(a2-3)Gal(b1-4)GlcNAc
How it was run: as §1

[42] = biological target: Neu5Gc(a2-3)Gal(b1-4)[Fuc(a1-3)]GlcNAc
How it was run: as §1

[43] = biological target: Neu5Gc(a2-6)Gal(b1-4)GlcNAc
How it was run: as §1

[44] = biological target: Neu5Gc(a2-6)GalNAc
How it was run: as §1

[45] = biological target: Neu5Gc(b2-6)Gal(b1-4)GlcNAc
How it was run: as §1

B1: GH98CBM (Clostridium perfringens) (protein)
chain: EVYALEESRDVYLSDLDWLNATHGDDTKSKIVQKNHPFTPGNNNQSTKISLKMEDGSISEFEKGLGTIAGSPSTITYDISGAGVTKFFSYLGIDRSANPINEQYAKVDKIEVVVDGKVIYSTINQFPNGLTYETPAIKVDLNIPENAKRLQLKSYAGEKTWGDEVVYADAKFTAKGDFVN
glycan array binding signal (z-score) [1]: -0.026
glycan array binding signal (z-score) [2]: -0.211
glycan array binding signal (z-score) [3]: -0.1
glycan array binding signal (z-score) [4]: -0.233
glycan array binding signal (z-score) [5]: 0.065
glycan array binding signal (z-score) [6]: -0.317
glycan array binding signal (z-score) [7]: 0.358
glycan array binding signal (z-score) [8]: 0.036
glycan array binding signal (z-score) [9]: -0.243
glycan array binding signal (z-score) [10]: -0.304
glycan array binding signal (z-score) [11]: -0.198
glycan array binding signal (z-score) [12]: -0.196
glycan array binding signal (z-score) [13]: -0.287
glycan array binding signal (z-score) [14]: -0.26
glycan array binding signal (z-score) [15]: -0.277
glycan array binding signal (z-score) [16]: -0.119
glycan array binding signal (z-score) [17]: 0.856
glycan array binding signal (z-score) [18]: -0.091
glycan array binding signal (z-score) [19]: -0.279
glycan array binding signal (z-score) [20]: -0.161
glycan array binding signal (z-score) [21]: -0.008
glycan array binding signal (z-score) [22]: -0.278
glycan array binding signal (z-score) [23]: -0.243
glycan array binding signal (z-score) [24]: -0.092
glycan array binding signal (z-score) [25]: -0.246
glycan array binding signal (z-score) [26]: -0.183
glycan array binding signal (z-score) [27]: -0.167
glycan array binding signal (z-score) [28]: -0.202
glycan array binding signal (z-score) [29]: -0.274
glycan array binding signal (z-score) [30]: 0.325
glycan array binding signal (z-score) [31]: -0.247
glycan array binding signal (z-score) [32]: -0.225
glycan array binding signal (z-score) [33]: 0.044
glycan array binding signal (z-score) [34]: -0.273
glycan array binding signal (z-score) [35]: -0.176
glycan array binding signal (z-score) [36]: -0.152
glycan array binding signal (z-score) [37]: -0.332
glycan array binding signal (z-score) [38]: -0.257
glycan array binding signal (z-score) [39]: -0.039
glycan array binding signal (z-score) [40]: -0.107
glycan array binding signal (z-score) [41]: -0.273
glycan array binding signal (z-score) [42]: -0.044
glycan array binding signal (z-score) [43]: -0.286
glycan array binding signal (z-score) [44]: -0.181
glycan array binding signal (z-score) [45]: -0.239

From the supplement of paper PMC8728848
